# Experimental data from the supplement of paper PMC8728848.
# The list shows a part of the results.
# B1: GS7807H-bfa-490-18-490 (Bacteroides fragilis) (protein)
# chain: GNLEEMNIDPDNATQTHPKLLLTQICMNAFKRGTDGMYATKKVIQADGESADQYYKWTRGSFGYYDNLRNVQKMGEEAERVNAPVYTALTKFFRAYYFYELTLRFGDIPYSQALKGEKEEIYTPEYDAQEDVFAGILQELREADEILANDASVIDGDIIYNGNSTQWRKLINSFRLKVLMTLSNHTTVGNINIASEFKNIATNSPLMNSLADNGQLVYLDQQGNRYPQFNAQWSGYYMDDTFIQRMRERRDPRLFIFSAQTNKGKTEGKPIDDFSSYEGGDPAAPYSDAIIKVSEGTISPINDRFRTDPIVEPTMLMGYAELQQILAEAVVRGWISGNAQTYYEKGIRASFSFYETHAKDYAGYLNENAVAQYLKEPLVDFTQASGTEEQIERIIMQKYLVTFYQGNWDSFYEQLRTGYPDFRRPAGTEIPKRWMYPQGEYDNNGTNVETAITRQFGAGNDKINQATWWQKKS
# Columns and labels:
# Test in all cases: glycan array binding signal (z-score within array); higher = stronger binding
# Settings in all cases: glycan notation: IUPAC condensed, linker removed
# [1] = target: GalNAc(b1-4)GlcNAc(b1-2)Man
# How it was run: (§1)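 The Consortium for Functional Glycomics database supplied 3228 glycan arrays, of which those lacking an available protein sequence were dropped. The binding signal, a within-array Z-score, was averaged across arrays of the same protein sequence and across linkers. Negative scores can be read as non-binding.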
# [2] = target: GalNAc(b1-4)GlcNAc(b1-2)Man(a1-3)[GalNAc(b1-4)GlcNAc(b1-2)Man(a1-6)]Man(b1-4)GlcNAc(b1-4)GlcNAc
# How it was run: as §1
# [3] = target: GalNAc(b1-4)GlcNAc(b1-3)GalNAc(b1-4)GlcNAc
# How it was run: as §1
# GalNAc(b1-4)GlcNAc6S = target: GalNAc(b1-4)GlcNAc6S
# How it was run: as §1
# GalNAc(b1-6)GalNAc = target: GalNAc(b1-6)GalNAc
# How it was run: as §1
# GalNAc3S(b1-4)GlcNAc = target: GalNAc3S(b1-4)GlcNAc
# How it was run: as §1
# GalNAc3S(b1-4)GlcNAc3S = target: GalNAc3S(b1-4)GlcNAc3S
# How it was run: as §1
# [4] = target: GalNAc3S(b1-4)[Fuc(a1-3)]GlcNAc
# How it was run: as §1
# GalNAc4S6S(b1-4)GlcNAc = target: GalNAc4S6S(b1-4)GlcNAc
# How it was run: as §1
# GalNAc6S(b1-4)GlcNAc = target: GalNAc6S(b1-4)GlcNAc
# How it was run: as §1
# Glc(a1-4)Glc = target: Glc(a1-4)Glc
# How it was run: as §1
# [5] = target: Glc(a1-4)Glc(a1-4)Glc(a1-4)Glc
# How it was run: as §1
# Glc(a1-6)Glc(a1-6)Glc = target: Glc(a1-6)Glc(a1-6)Glc
# How it was run: as §1
# [6] = target: Glc(a1-6)Glc(a1-6)Glc(a1-6)Glc
# How it was run: as §1
# Glc(b1-4)Glc = target: Glc(b1-4)Glc
# How it was run: as §1
# Glc(b1-6)Glc = target: Glc(b1-6)Glc
# How it was run: as §1
# GlcA(b1-3)Gal = target: GlcA(b1-3)Gal
# How it was run: as §1
# GlcA(b1-3)GlcNAc = target: GlcA(b1-3)GlcNAc
# How it was run: as §1
# GlcA(b1-6)Gal = target: GlcA(b1-6)Gal
# How it was run: as §1
# [7] = target: GlcA3S(b1-3)Gal(b1-4)GlcNAc(b1-2)Man
# How it was run: as §1
# [8] = target: GlcA3S(b1-3)Gal(b1-4)GlcNAc(b1-3)Gal(b1-4)Glc
# How it was run: as §1
# [9] = target: GlcNAc(a1-3)Gal(b1-4)GlcNAc
# How it was run: as §1
# [10] = target: GlcNAc(a1-4)Gal(b1-3)GlcNAc
# How it was run: as §1
# [11] = target: GlcNAc(a1-4)Gal(b1-4)GalNAc
# How it was run: as §1
# [12] = target: GlcNAc(a1-4)Gal(b1-4)GlcNAc
# How it was run: as §1
# [13] = target: GlcNAc(a1-4)Gal(b1-4)GlcNAc(b1-3)Gal(b1-4)Glc
# How it was run: as §1
# [14] = target: GlcNAc(a1-4)Gal(b1-4)GlcNAc(b1-3)Gal(b1-4)GlcNAc
# How it was run: as §1
# [15] = target: GlcNAc(a1-4)Gal(b1-4)GlcNAc(b1-3)Gal(b1-4)GlcNAc(b1-3)Gal(b1-4)GlcNAc
# How it was run: as §1
# [16] = target: GlcNAc(a1-4)Gal(b1-4)GlcNAc(b1-3)Gal(b1-4)[Fuc(a1-3)]GlcNAc(b1-3)Gal(b1-4)[Fuc(a1-3)]GlcNAc
# How it was run: as §1
# [17] = target: GlcNAc(a1-6)Gal(b1-4)GlcNAc
# How it was run: as §1
# [18] = target: GlcNAc(b1-2)Gal(b1-3)GalNAc
# How it was run: as §1
# [19] = target: GlcNAc(b1-2)Man(a1-3)[GlcNAc(b1-2)Man(a1-6)]Man(b1-4)GlcNAc(b1-4)GlcNAc
# How it was run: as §1
# [20] = target: GlcNAc(b1-2)Man(a1-3)[GlcNAc(b1-2)Man(a1-6)]Man(b1-4)GlcNAc(b1-4)[Fuc(a1-6)]GlcNAc
# How it was run: as §1
# [21] = target: GlcNAc(b1-2)Man(a1-3)[GlcNAc(b1-4)][GlcNAc(b1-2)Man(a1-6)]Man(b1-4)GlcNAc(b1-4)GlcNAc
# How it was run: as §1
# [22] = target: GlcNAc(b1-2)Man(a1-3)[GlcNAc(b1-4)][GlcNAc(b1-2)Man(a1-6)]Man(b1-4)GlcNAc(b1-4)[Fuc(a1-6)]GlcNAc
# How it was run: as §1
# [23] = target: GlcNAc(b1-2)[GlcNAc(b1-4)]Man(a1-3)[GlcNAc(b1-2)Man(a1-6)]Man(b1-4)GlcNAc(b1-4)GlcNAc
# How it was run: as §1
# [24] = target: GlcNAc(b1-2)[GlcNAc(b1-4)]Man(a1-3)[GlcNAc(b1-4)][GlcNAc(b1-2)Man(a1-6)]Man(b1-4)GlcNAc(b1-4)GlcNAc
# How it was run: as §1
# [25] = target: GlcNAc(b1-2)[GlcNAc(b1-4)]Man(a1-3)[GlcNAc(b1-4)][GlcNAc(b1-2)[GlcNAc(b1-6)]Man(a1-6)]Man(b1-4)GlcNAc(b1-4)GlcNAc
# How it was run: as §1
# [26] = target: GlcNAc(b1-2)[GlcNAc(b1-4)]Man(a1-3)[GlcNAc(b1-4)][GlcNAc(b1-2)[GlcNAc(b1-6)]Man(a1-6)]Man(b1-4)GlcNAc(b1-4)[Fuc(a1-6)]GlcNAc
# How it was run: as §1
# [27] = target: GlcNAc(b1-2)[GlcNAc(b1-6)]Man(a1-6)[GlcNAc(b1-2)Man(a1-3)]Man(b1-4)GlcNAc(b1-4)GlcNAc
# How it was run: as §1
# [28] = target: GlcNAc(b1-2)[GlcNAc(b1-6)]Man(a1-6)[GlcNAc(b1-2)Man(a1-3)]Man(b1-4)GlcNAc(b1-4)[Fuc(a1-6)]GlcNAc
# How it was run: as §1
# [29] = target: GlcNAc(b1-2)[GlcNAc(b1-6)]Man(a1-6)[GlcNAc(b1-4)][GlcNAc(b1-2)Man(a1-3)]Man(b1-4)GlcNAc(b1-4)GlcNAc
# How it was run: as §1
# GlcNAc(b1-3)Fuc = target: GlcNAc(b1-3)Fuc
# How it was run: as §1
# GlcNAc(b1-3)Gal = target: GlcNAc(b1-3)Gal
# How it was run: as §1
# [30] = target: GlcNAc(b1-3)Gal(b1-3)GalNAc
# How it was run: as §1
binder,measurement,setting,value
B1,glycan array binding signal (z-score),[1],0.981
same,glycan array binding signal (z-score),[2],0.567
same,glycan array binding signal (z-score),[3],0.024
same,glycan array binding signal (z-score),GalNAc(b1-4)GlcNAc6S,0
same,glycan array binding signal (z-score),GalNAc(b1-6)GalNAc,-0.487
same,glycan array binding signal (z-score),GalNAc3S(b1-4)GlcNAc,-0.743
same,glycan array binding signal (z-score),GalNAc3S(b1-4)GlcNAc3S,0.108
same,glycan array binding signal (z-score),[4],-0.121
same,glycan array binding signal (z-score),GalNAc4S6S(b1-4)GlcNAc,-0.764
same,glycan array binding signal (z-score),GalNAc6S(b1-4)GlcNAc,-0.297
same,glycan array binding signal (z-score),Glc(a1-4)Glc,-0.557
same,glycan array binding signal (z-score),[5],-0.444
same,glycan array binding signal (z-score),Glc(a1-6)Glc(a1-6)Glc,-0.393
same,glycan array binding signal (z-score),[6],-0.389
same,glycan array binding signal (z-score),Glc(b1-4)Glc,-0.663
same,glycan array binding signal (z-score),Glc(b1-6)Glc,0.397
same,glycan array binding signal (z-score),GlcA(b1-3)Gal,-0.27
same,glycan array binding signal (z-score),GlcA(b1-3)GlcNAc,-0.185
same,glycan array binding signal (z-score),GlcA(b1-6)Gal,0.638
same,glycan array binding signal (z-score),[7],-0.164
same,glycan array binding signal (z-score),[8],-0.554
same,glycan array binding signal (z-score),[9],-0.677
same,glycan array binding signal (z-score),[10],-0.192
same,glycan array binding signal (z-score),[11],-0.706
same,glycan array binding signal (z-score),[12],-0.197
same,glycan array binding signal (z-score),[13],-0.187
same,glycan array binding signal (z-score),[14],-0.181
same,glycan array binding signal (z-score),[15],-0.424
same,glycan array binding signal (z-score),[16],-0.118
same,glycan array binding signal (z-score),[17],0.08
same,glycan array binding signal (z-score),[18],-0.257
same,glycan array binding signal (z-score),[19],-0.003
same,glycan array binding signal (z-score),[20],0.507
same,glycan array binding signal (z-score),[21],-0.317
same,glycan array binding signal (z-score),[22],-0.103
same,glycan array binding signal (z-score),[23],-0.442
same,glycan array binding signal (z-score),[24],-0.221
same,glycan array binding signal (z-score),[25],-0.583
same,glycan array binding signal (z-score),[26],-0.453
same,glycan array binding signal (z-score),[27],-0.528
same,glycan array binding signal (z-score),[28],-0.046
same,glycan array binding signal (z-score),[29],-0.365
same,glycan array binding signal (z-score),GlcNAc(b1-3)Fuc,-0.702
same,glycan array binding signal (z-score),GlcNAc(b1-3)Gal,-0.808
same,glycan array binding signal (z-score),[30],-0.179
